According to PubChem BioAssay AID602310 (National Center for Advancing Translational Sciences (NCATS), 2012):
About 310 (0.076%) of roughly 410,000 compounds were called active. Inconclusive means that the source gave no clear call. Such entries were picked first, then a sample of the others. The call rests on the fitted dose curve; in most records, active means well fitted curve in the direction sought with a large enough effect; inconclusive means small, poorly fitted or top-dose-only effect; inactive means flat fitted curve, though single readings scatter. Potencies of inconclusive entries are doubtful fits and often do not repeat.

Molecular target: DNA dC->dU-editing enzyme APOBEC-3G (Homo sapiens) (UniProt Q9HC16)
UniProt Q9HC16, sequence (Q9HC16 whole entry, looked up): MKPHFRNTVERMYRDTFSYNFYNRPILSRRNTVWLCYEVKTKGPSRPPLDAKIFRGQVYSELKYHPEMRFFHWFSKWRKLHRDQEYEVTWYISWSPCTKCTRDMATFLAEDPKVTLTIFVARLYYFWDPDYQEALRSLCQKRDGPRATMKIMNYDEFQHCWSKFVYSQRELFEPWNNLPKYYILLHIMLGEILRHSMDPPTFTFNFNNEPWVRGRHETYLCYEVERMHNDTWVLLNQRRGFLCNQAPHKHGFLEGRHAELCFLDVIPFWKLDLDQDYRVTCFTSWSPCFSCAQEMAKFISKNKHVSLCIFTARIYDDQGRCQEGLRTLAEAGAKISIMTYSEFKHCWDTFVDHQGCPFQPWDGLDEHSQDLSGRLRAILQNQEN
Assay: qHTS for Inhibitors of Vif-A3G Interactions: qHTS; further: nearly all actives have a fitted effect of over 60% in size
Conditions: HeLa A3G-eYFP + Vif (tagged APOBEC3G with the HIV-1 protein that degrades it), YFP fluorescence, overnight; series mostly up to 46.1 µM
Procedure, shortened: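 HeLa cells stably expressing Vif and C-terminally eYFP-tagged A3G, seeded overnight at 37 deg C, then exposed to compound by pintool overnight at 37 deg C. Rise in yellow fluorescence (Ex 488/Em 500-530, Acumen) marks blocked Vif-driven A3G degradation.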
Potency means the concentration at half of the fitted maximal effect; tags describe the fitted curve by direction and shape.

Row | Compound | Potency
1 | Cn1nnc2c[n+](CC(=O)c3ccc4ccccc4c3)cc(Br)c21 | inconclusive: 25.1 µM [inhibitor, single point]
2 | COc1cccc(-c2csc(N3CCN(C(=S)Nc4ccc(Cl)cc4)CC3)n2)c1 | inactive
3 | COc1ccc(/C=N/n2cc(-c3ccccc3)nc2N)cc1 | inconclusive: 8.91 µM [inhibitor, partial curve]
4 | COc1cccc(-c2nc(-c3ccc4c(c3)NC(=O)CO4)cs2)c1 | inactive
5 | CNC(=O)C(Sc1nc(C)nc2c1oc1ccccc12)C(C)=O (configuration not stated) | inconclusive: 17.8 µM [inhibitor, partial curve, poor fit]
6 | COc1cccc(CN2CCN(c3ccc(F)cc3)C2=O)c1 | inactive
7 | CCNC(=O)COc1ccc(/C=C2\COc3ccccc3C2=O)cc1OC | inconclusive: 20 µM [inhibitor, partial curve, poor fit]
8 | C=C1C(=O)O[C@H]2[C@H]1[C@H](OC(=O)/C(C)=C\C)C[C@]1(CO1)[C@@H]1[C@H](OC(C)=O)C=C(C)[C@]21O | inconclusive: 35.5 µM [inhibitor, single point]
9 | O=C(NCc1ccccc1)c1nc(S(=O)(=O)Cc2ccccc2)ncc1Cl | inconclusive: 22.4 µM [inhibitor, single point]
10 | O=C(NNc1ncc(C(F)(F)F)cc1Cl)c1ccc(Cl)c(Cl)c1 | inactive
11 | COc1ccc(/C=C2\N=C(C)OC2=O)cc1OC(C)=O | inactive
12 | O=c1oc2ccccc2c(Nc2ccc3ccccc3c2)c1[N+](=O)[O-] | inconclusive: 15.8 µM [inhibitor, single point]
13 | COC(=O)Cn1c(C)c(/C=C/c2cc[n+](C)cc2)c2ccccc21 | inconclusive: 10 µM [inhibitor, partial curve, poor fit]
14 | CCc1ccc(N=C2NC(=O)/C(=C/c3cc(OC)c(O)c(OC)c3)S2)cc1 | inconclusive: 17.8 µM [inhibitor, single point]
15 | CCCOc1cccc(C2C(C(=O)c3ccc(C)o3)=C(O)C(=O)N2c2nc(C)c(C(C)=O)s2)c1 (configuration not stated) | inactive
16 | CCC(C)n1c(NC(=O)c2ccccc2)c(C#N)c2nc3ccccc3nc21 (configuration not stated) | inconclusive: 22.4 µM [inhibitor, partial curve, poor fit]
17 | COc1cc(N=C2C(=O)N3c4c(cccc42)C(C)=CC3(C)C)cc(OC)c1 | inconclusive: 35.5 µM [inhibitor, single point]
18 | COc1cc2c(cc1OC)[C@H](C)N(C(=O)NCc1ccccc1)CC2 | inconclusive: 35.5 µM [inhibitor, single point]
19 | Cc1cccc(N2C(=O)CSC23C(=O)N(CC(=O)NCc2ccccc2Cl)c2ccccc23)c1 (configuration not stated) | inactive
20 | CCn1c(COc2cccc3cccnc23)nnc1SCC(=O)O | inactive
21 | COc1cc2c(cc1OC)C(CCc1ccccc1)=NCC2 | inactive
22 | Cc1oc2ncn(CC(C)C)c(=O)c2c1C(=O)NC(C)c1ccccc1 (configuration not stated) | inconclusive: 15.8 µM [inhibitor, single point]
23 | O=C(Nc1ccc(N2CCN(C(=O)c3ccccc3)CC2)cc1)c1ccc2c(c1)OCO2 | inactive

Row | Compound | Potency
24 | COc1cc(Nc2ccccc2Cl)c([N+](=O)[O-])nc1[N+](=O)[O-] | inconclusive: 22.4 µM [inhibitor, single point]
25 | Cc1c(-c2nnc(SCC(=O)Nc3ccc(Cl)cc3)o2)nnn1-c1ccc(F)cc1 | inactive
26 | Cc1[nH]n(-c2ccccc2)c(=O)c1/C=N/Nc1nncc(-c2ccccc2)n1 | inconclusive: 35.5 µM [inhibitor, single point]
27 | O=C(Nc1nnc(-c2ccco2)s1)C1CCCCC1 | inactive
28 | COc1ccc(-n2c(=O)c3c(c4cc(OC)ccc4n3C)n(CCC(C)C)c2=O)cc1 | inactive
29 | COc1ccc(C2=NOC(COc3ccc4c(C)cc(=O)oc4c3)C2)c(OC)c1 (configuration not stated) | inconclusive: 1.26 µM [inhibitor, full curve, poor fit]
30 | CCc1ccc(NC(=O)C(CC)Sc2nc3cc4c(cc3c(=O)n2Cc2ccco2)OCO4)cc1 (configuration not stated) | inconclusive: 11.2 µM [inhibitor, partial curve]
31 | COc1ccccc1-c1cc(NC=O)c2ncc(-c3cccc(C(C)=O)c3)n2c1 | inconclusive: 8.91 µM [inhibitor, partial curve]
32 | COc1ccc(/C=C2/CSC/C(=C/c3ccc(OC)c(OC)c3)C2=O)cc1OC | inconclusive: 0.562 µM [inhibitor, full curve, poor fit]
33 | COc1ccc(NC(=S)N(CCc2c(C)[nH]c3ccc(C)cc23)Cc2cccs2)cc1 | inactive
34 | N=c1ccn(Cc2ccc(Cl)cc2)cc1 | inactive
35 | CCN(Cc1ccccc1)S(=O)(=O)c1ccc(F)c(C(=O)Nc2cc(C(F)(F)F)ccc2Cl)c1 | inactive
36 | Cc1ccc2c(c1)Oc1ccc(NC(=O)CCl)cc1C(=O)N2 | inconclusive: 11.2 µM [inhibitor, partial curve, poor fit]
37 | CSc1ccccc1OCc1cc(C(=O)NCCN2CCCc3ccccc32)no1 | inconclusive: 12.6 µM [inhibitor, single point]
38 | Cc1cc2nc(-c3ccc(SCc4ccc(C(=O)O)cc4)nc3)[nH]c2cc1C | inconclusive: 25.1 µM [inhibitor, single point]
39 | O=S(=O)(Cc1ccc(Cl)cc1Cl)c1ccc(Cl)cc1 | inconclusive: 0.708 µM [inhibitor, full curve, poor fit]
40 | Cc1c(C(=O)OCC(C)C)[nH]c2c1C(=O)CC(c1cccs1)C2 (configuration not stated) | inconclusive: 0.562 µM [inhibitor, full curve, poor fit]
41 | O=[N+]([O-])c1ccc(/C=N/n2cnc3ccccc32)s1 | inconclusive: 3.98 µM [inhibitor, full curve, poor fit]
42 | Nc1nc(C2CC2)c(Sc2sc(N)nc2C2CC2)s1 | inconclusive: 11.2 µM [inhibitor, partial curve, poor fit]
43 | COc1ccc(-c2cc(CNc3nc(NCc4ccccc4OC)nc4ccsc34)on2)cc1 | inconclusive: 28.2 µM [inhibitor, single point]
44 | CC1(C(=O)NCC2CCOCC2)Cc2c(-c3cccc(C(F)(F)F)c3)ccnc2O1 (configuration not stated) | inconclusive: 3.55 µM [inhibitor, full curve, poor fit]
45 | COc1cc2nc(/C=C/c3ccc(N(C)C)cc3)sc2cc1SC | inconclusive: 6.31 µM [inhibitor, partial curve, poor fit]
46 | CCN(Cc1ccccc1)S(=O)(=O)c1ccc(C(=O)N(CCCN(C)C)c2nc3ccc(F)cc3s2)cc1 | inconclusive: 25.1 µM [inhibitor, single point]

Row | Compound | Potency
47 | O=C(/C=C/Sc1ccc(C(F)(F)F)cn1)c1ccccc1 | inactive
48 | COc1cc(C(=O)Nc2c(C(=O)O)[nH]c3ccc(C)cc23)cc(OC)c1OC | inconclusive: 15.8 µM [inhibitor, single point]
49 | CCOC(=O)c1c(N2C(=O)C=CC2=O)sc(C)c1C | inconclusive: 35.5 µM [inhibitor, single point]
50 | CC(=O)Nc1ccc(-c2ccnc3c2CC(C)(C(=O)Nc2ccc4c(c2)OCO4)O3)cc1 (configuration not stated) | inconclusive: 7.94 µM [inhibitor, partial curve]
51 | CC(C)c1ccc(-n2cccc2/C=C2/C(=N)N3C=CSC3=NC2=O)cc1 | inconclusive: 22.4 µM [inhibitor, single point]
52 | Cc1cccc(OCc2nnc(N)s2)c1 | inactive
53 | O=C1CCCN1CCC1CCN(C2CC(=O)N(c3ccc(Cl)cc3)C2=O)CC1 (configuration not stated) | inactive
54 | Oc1cccc2cc(-c3ccncc3)cnc12 | inconclusive: 3.16 µM [inhibitor, partial curve, poor fit]
55 | COc1cc(/C=N/NC(=O)c2[nH]nc3c2CCc2ccccc2-3)ccc1O | inconclusive: 11.2 µM [inhibitor, partial curve]
56 | Cc1ccc(-c2cc(NC=O)c3ncc(-c4cnn(C)c4)n3c2)cc1 | inconclusive: 2.51 µM [inhibitor, full curve, poor fit]
57 | CCOCCCNC(=O)c1ccc(Cn2c(=O)c3cccn3c3cccnc32)cc1 | inconclusive: 12.6 µM [inhibitor, partial curve, poor fit]
58 | COc1cccc(OC)c1C1=CC(=O)C[C@H](c2ccc3c(c2)OCO3)C1 | inconclusive: 10 µM [inhibitor, partial curve, poor fit]
59 | COc1ccc(CCN2CC(C(=O)NCCc3cccc(F)c3)CCC2=O)cc1 (configuration not stated) | inconclusive: 35.5 µM [inhibitor, single point]
60 | Cc1cc(C)c(C(=O)/C=C/c2cccc3ccccc23)c(=O)[nH]1 | inconclusive: 20 µM [inhibitor, single point]
61 | COc1ccc(C(C[N+](=O)[O-])c2c(C)cc3ccccn23)c(OC)c1 (configuration not stated) | inconclusive: 20 µM [inhibitor, single point]
62 | CC(=O)Nc1ccc(NC(=O)C(C)OC(=O)/C(C#N)=C/c2ccc(N(C)C)cc2)cc1 (configuration not stated) | inconclusive: 28.2 µM [inhibitor, single point]
63 | COc1ccc(NC(=O)/C=C/c2ccccc2)c([N+](=O)[O-])c1 | inactive
64 | O=C(CNC(=O)c1ccc2c(c1)OCCO2)N/N=C/c1cccc(Br)c1 | inactive
65 | CCOc1ccc2noc3c2c1C(=O)c1ccccc1-3 | inactive
66 | CCN(CC)CCN1CCN(c2cncc(-c3ccc4ccccc4c3)n2)CC1 | inconclusive: 35.5 µM [inhibitor, single point]
67 | COc1ccc2c(c1)C(CC(=O)NN)CCC2 (configuration not stated) | inconclusive: 1.26 µM [inhibitor, full curve, poor fit]
